For 167 variants, nonsense suppression results are on record in the RNAGym collection of RNA variant scans (doi:10.1101/gad.245936.114).

The chains are these.
B1: tRNA (parent)
chain: CUCUCGGUAGCCAAGUUGGUUUAAGGCGCAAGACUUUAAUUUAUCACUACGAAAUCUUGAGAUCGGGCGUUCGACUCGCCCCCGGGAGAUUUUUUCCUCGAGCAA

Variants at the floor of the assay are shown more often than the library holds them.

The variants in the data set derive from B1. Nature of the data set: nonsense suppression (GFP-seq) (ratio to wild type); higher = more function; SUP4oc tRNA, yeast GFP reporter sort-seq. Summed up: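 Yeast were grown in raffinose/galactose medium with 80 mg/L adenine, each strain bearing a genome-integrated ochre-suppressor tRNA variant from a ~3% random-mutation library, a galactose-driven GFP ochre reporter, and RFP. After sorting into GFP/RFP bins, every bin was sequenced on an Illumina platform at phred ≥30. The GFPSEQ value, a measure of nonsense suppression, is the weighted bin median GFP/RFP relative to the unmutated parent tRNA, using each variant's estimated cell share per bin as the weight. Only variants with ≥100 reads and ≥30 cells were included.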
As to C3A A13U U21C, the nonsense suppression was not above 0.026.

Take G10A U63C A74G G86U: the nonsense suppression is not above 0.026.

Take U16G A54C C83U: the nonsense suppression is not above 0.026.

Consider C3G U20G A33C, for which the nonsense suppression was not above 0.026.

Regarding A33C G67C, the nonsense suppression was not above 0.026.

In the case of U58A G61U, the nonsense suppression is not above 0.026.

For A9C G26U, the nonsense suppression is not above 0.026.

For the variant A23G C72A, the nonsense suppression was not above 0.026.

Consider C5G U21G, for which the nonsense suppression is not above 0.026.

Take C1A G15A G26U A54G U57C: the nonsense suppression is not above 0.026.

As for C1U A13C U16C A62C, the nonsense suppression is not above 0.026.

On to U16C U21G A31G G32C G69A U71C C75A G86A, for which the nonsense suppression was not above 0.026.

As for U17A C27A A30G U57A U63A, the nonsense suppression was not above 0.026.

In the case of G61C G88A, the nonsense suppression worked out at 0.0268.

For the variant C5U U22C A23U G26C C27U, the nonsense suppression was not above 0.026.

For A24G G65A, the nonsense suppression was not above 0.026.

Turning to G10U A23C C27A U55C U58G C68G G69C, the nonsense suppression is not above 0.026.

With U57A C81G A89U, the nonsense suppression was not above 0.026.

A30U G78C G85C: the nonsense suppression was not above 0.026.

On to C3G U8C G61C G65A, for which the nonsense suppression is not above 0.026.

On to A33G U55A A74C, for which the nonsense suppression is not above 0.026.

As for U8C U35A, the nonsense suppression was not above 0.026.

For G6A C11A A74C, the nonsense suppression was not above 0.026.

In the case of U63A C82A, the nonsense suppression is not above 0.026.

In the case of C11U C81A, the nonsense suppression is not above 0.026.

For C68U, the nonsense suppression stood at 1.05.

For A9U C64U, the nonsense suppression amounted to 0.0349.

G10C C11A G18C U57C G78U: the nonsense suppression was not above 0.026.

In the case of A13C G65U G78C, the nonsense suppression was not above 0.026.

Turning to C3U G6A G7A G19U C79A G86C, the nonsense suppression was not above 0.026.

Regarding A23U G78C A87G, the nonsense suppression was not above 0.026.

C1A C5A U70A: the nonsense suppression was not above 0.026.

As for G6U U58G U70G, the nonsense suppression was not above 0.026.

On to C11A G88C, for which the nonsense suppression was not above 0.026.

Take A13C A60U: the nonsense suppression amounted to 1.07.

As for C81A G84U, the nonsense suppression is not above 0.026.

As for G26U C68U, the nonsense suppression is not above 0.026.

With C27A U55A G61C U63A U76C, the nonsense suppression was not above 0.026.

Regarding U20G G65C C80A, the nonsense suppression was not above 0.026.

On to A14U A24G G84C, for which the nonsense suppression was not above 0.026.

For the variant U8G A62C G65A, the nonsense suppression is not above 0.026.

For U17G A30U C34G G66A, the nonsense suppression was not above 0.026.

In the case of U4C C80U, the nonsense suppression was determined as 0.651.

G7C G59A: the nonsense suppression is not above 0.026.

For C72G C80A A87C, the nonsense suppression was not above 0.026.

On to A13U U22G U57G C72G, for which the nonsense suppression is not above 0.026.

Consider U35G G66C, for which the nonsense suppression was not above 0.026.

For U2A A9C C27A, the nonsense suppression is not above 0.026.

For the variant U21A A62G C81G, the nonsense suppression was not above 0.026.

With A9C C27U G32C U35A C68A G78C, the nonsense suppression was not above 0.026.

With G85C A87C, the nonsense suppression is not above 0.026.

As to U4C A89C, the nonsense suppression was not above 0.026.

Take U2A G10A: the nonsense suppression was not above 0.026.

Take U4C A13U: the nonsense suppression is 1.12.

Regarding C3G A30U G61U A62G, the nonsense suppression is not above 0.026.

For the variant A9G C27U U35C G86C, the nonsense suppression was not above 0.026.

With G25U G28U C29G C72G C81A, the nonsense suppression is not above 0.026.

G26C C34A C68G: the nonsense suppression is not above 0.026.

Regarding U4C A74G, the nonsense suppression is not above 0.026.

Turning to A13U G26A G78A, the nonsense suppression is not above 0.026.

In the case of U4C A13C U17G C64G, the nonsense suppression was not above 0.026.

On to A30C U55A, for which the nonsense suppression is not above 0.026.

For U4A G18A C75G, the nonsense suppression is not above 0.026.

On to A23C G32C U57A C83A, for which the nonsense suppression is not above 0.026.

Regarding G25U C34G C79G, the nonsense suppression was not above 0.026.

Turning to C1A C12A, the nonsense suppression is not above 0.026.

Take U57C U76C: the nonsense suppression was not above 0.026.

For the variant G6C A9C C11U C34U, the nonsense suppression is not above 0.026.

Turning to A9C G86A, the nonsense suppression was not above 0.026.

Turning to A14C C64A A87G, the nonsense suppression was not above 0.026.

Consider G6C C11A C75G, for which the nonsense suppression is not above 0.026.

In the case of C1A C34U U70A C75G C80G A87C, the nonsense suppression is not above 0.026.

Take G18C A33U A62U: the nonsense suppression was not above 0.026.

In the case of A9G C29A G32U C34U, the nonsense suppression was not above 0.026.

Turning to C5G G10U A13U G28C G69A C82U, the nonsense suppression is not above 0.026.

As to U22C G59A C77U, the nonsense suppression is not above 0.026.

Regarding C1G U8G, the nonsense suppression was not above 0.026.

In the case of A9U C56A A62C, the nonsense suppression was not above 0.026.

With A23U A54G A74G, the nonsense suppression is not above 0.026.

For the variant A13C U63C C81G, the nonsense suppression is not above 0.026.

G67U A87G: the nonsense suppression is not above 0.026.

In the case of C11G U63A U70G, the nonsense suppression is not above 0.026.

Consider C11U U21C G61A A87G, for which the nonsense suppression was not above 0.026.

For G15C U17G, the nonsense suppression was not above 0.026.

On to G6U U57G, for which the nonsense suppression was not above 0.026.

As for C3A C29G A60C C81G, the nonsense suppression was not above 0.026.

Take U2G C12U C29U G61C: the nonsense suppression was not above 0.026.

As for U20G G59U G88A, the nonsense suppression was not above 0.026.

Regarding U63C G69C, the nonsense suppression is not above 0.026.

Regarding G59A G61A C75A C79G A89U, the nonsense suppression is not above 0.026.

As for A13U C34A G61C G85C, the nonsense suppression is not above 0.026.

On to U35G G66A U71A, for which the nonsense suppression was not above 0.026.

On to C1A G86A, for which the nonsense suppression is not above 0.026.

In the case of U4G U57G, the nonsense suppression came to 0.0369.

Take A9U U22G A30C C81G: the nonsense suppression was not above 0.026.

With U58G G67A, the nonsense suppression is not above 0.026.

Turning to G6A A54G, the nonsense suppression was not above 0.026.

With U58G G59A C80U G86U, the nonsense suppression was not above 0.026.

Regarding G65A G86A, the nonsense suppression was not above 0.026.

Take C5G: the nonsense suppression is not above 0.026.

Consider C5A, for which the nonsense suppression was not above 0.026.

Regarding C1G U2C U70A C75U, the nonsense suppression is not above 0.026.

Regarding G25U C64A C80U, the nonsense suppression was not above 0.026.

Consider U21A G59A U76C, for which the nonsense suppression was not above 0.026.

As to U2C C12A A23U A60U U76A, the nonsense suppression was not above 0.026.

Regarding A13U G15U, the nonsense suppression is not above 0.026.

Consider C1A G19A U21G A24U, for which the nonsense suppression is not above 0.026.

As to G78A C81U, the nonsense suppression was not above 0.026.

In the case of C56G C79A G85C, the nonsense suppression was not above 0.026.

Consider U4C A30G U70G C83U, for which the nonsense suppression is not above 0.026.

As to G66U U76A G84U, the nonsense suppression was not above 0.026.

Take U21A A54U G78U: the nonsense suppression is not above 0.026.

On to A31U C56A U70C A89G, for which the nonsense suppression was not above 0.026.

As to A14G G28A U71A, the nonsense suppression is not above 0.026.

As to U4G G61A G67U C68G C81G G85U, the nonsense suppression was not above 0.026.

With G7A C12U U55C U76A, the nonsense suppression is not above 0.026.

For the variant U8C G32U U58A A62C A74U G88U, the nonsense suppression was not above 0.026.

As to G7U A33G C80U, the nonsense suppression was not above 0.026.

For the variant U2G C64U C82G, the nonsense suppression was not above 0.026.

On to G18C G66C, for which the nonsense suppression is not above 0.026.

For the variant U2G A60U, the nonsense suppression is not above 0.026.

As to C3G C29U, the nonsense suppression was not above 0.026.

Take G19C G66U G86C: the nonsense suppression was not above 0.026.

A13U U35C U57C U58C G84A: the nonsense suppression is not above 0.026.

Turning to C1G C64U U71C, the nonsense suppression was not above 0.026.

For the variant A33C C80A A87G, the nonsense suppression was not above 0.026.

Take G10C G15C G32U U63A: the nonsense suppression was not above 0.026.

For the variant G18A A54C G65C, the nonsense suppression is not above 0.026.

As to U2C A9G G66C G67U, the nonsense suppression is not above 0.026.

In the case of A14G C77U G86A, the nonsense suppression is not above 0.026.

For G15C A24G A89U, the nonsense suppression was not above 0.026.

Take C27G A33U C68A: the nonsense suppression was not above 0.026.

On to G26C C68A U76G G88C, for which the nonsense suppression was not above 0.026.

For the variant U20G U21G A30U, the nonsense suppression was not above 0.026.

Consider G32A C64G, for which the nonsense suppression was not above 0.026.

As to C12U G32A C75U A89C, the nonsense suppression was not above 0.026.

For the variant G6U C12G C34G C56U, the nonsense suppression was not above 0.026.

Regarding G18U A24C G69C, the nonsense suppression is not above 0.026.

Consider U22C G26U U58G U70C, for which the nonsense suppression is not above 0.026.

As to G25U G61C G69A, the nonsense suppression is not above 0.026.

As to U17G U22C G28U U71C C81G, the nonsense suppression was not above 0.026.

With U21A A54U, the nonsense suppression amounted to 0.737.

Consider A9C A30U G67U, for which the nonsense suppression was not above 0.026.

A30G C68G: the nonsense suppression was not above 0.026.

For C3G U58C G66C, the nonsense suppression is not above 0.026.

Regarding A9G G78C C80A, the nonsense suppression is not above 0.026.

On to C5U G10A U71G, for which the nonsense suppression was not above 0.026.

C3U U63C C75G: the nonsense suppression was not above 0.026.

For U2G U4A, the nonsense suppression was not above 0.026.

On to C34G U76A, for which the nonsense suppression is not above 0.026.

Take C34G U55C G59C: the nonsense suppression was not above 0.026.

On to A23G C29U A31C C72A, for which the nonsense suppression is not above 0.026.

Consider U16G G25C A54U, for which the nonsense suppression is not above 0.026.

Regarding G7C A13C A62U, the nonsense suppression is not above 0.026.

Turning to G59A A87G, the nonsense suppression was not above 0.026.

U70G G84A: the nonsense suppression is not above 0.026.

As for G65A G67A A87U, the nonsense suppression was not above 0.026.

For the variant U55A A60C G78A C83G G86C, the nonsense suppression was not above 0.026.

Consider U63C G67A G73C, for which the nonsense suppression is not above 0.026.

As to U2C G10U A24G, the nonsense suppression was not above 0.026.

For the variant C1A C12G G67C, the nonsense suppression is not above 0.026.

Take G7A C29G A74G: the nonsense suppression was not above 0.026.

Consider A30U U76G G85U, for which the nonsense suppression was not above 0.026.

Regarding A14C A31C U58C C72A U76C C77U, the nonsense suppression was not above 0.026.

For U16G A31C, the nonsense suppression was not above 0.026.

Regarding C56U U57G, the nonsense suppression was not above 0.026.

For the variant A23G A24C C34U C72A A89G, the nonsense suppression was not above 0.026.
